Reference: the supplement of paper PMC3334620
Over roughly 33,000 sequences, “E-score (-0.5 to 0.5)” has its median near -0.012; the highest 2% begin near 0.27. The list shows a part of the results.

The sequences below were run against T1, Vhr1 (UniProt P40522) (assay: PBM E-score (8-mer binding enrichment) (E-score (-0.5 to 0.5)); higher = stronger / more preferred TF binding; most listed sequences are background and not binding sites). Details: protein concentration: 200 nM; construct: GST-full length.
T1 sequence: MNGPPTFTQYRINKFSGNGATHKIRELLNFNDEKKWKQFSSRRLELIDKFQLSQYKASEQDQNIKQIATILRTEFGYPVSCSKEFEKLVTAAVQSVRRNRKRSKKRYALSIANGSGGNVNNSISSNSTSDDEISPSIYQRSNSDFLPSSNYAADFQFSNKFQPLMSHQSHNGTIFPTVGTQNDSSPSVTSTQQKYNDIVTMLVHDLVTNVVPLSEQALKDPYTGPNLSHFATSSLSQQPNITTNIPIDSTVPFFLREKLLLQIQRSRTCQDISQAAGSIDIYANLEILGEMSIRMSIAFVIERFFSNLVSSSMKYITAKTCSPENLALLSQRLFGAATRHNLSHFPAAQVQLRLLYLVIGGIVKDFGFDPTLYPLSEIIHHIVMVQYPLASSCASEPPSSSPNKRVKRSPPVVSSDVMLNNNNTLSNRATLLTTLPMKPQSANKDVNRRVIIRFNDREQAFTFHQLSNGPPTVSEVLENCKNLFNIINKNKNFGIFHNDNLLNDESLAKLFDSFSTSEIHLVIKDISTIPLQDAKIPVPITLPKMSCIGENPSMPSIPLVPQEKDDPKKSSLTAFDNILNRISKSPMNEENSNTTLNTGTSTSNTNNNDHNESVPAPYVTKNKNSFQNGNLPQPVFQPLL
In short: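 Yeast transcription factors, full-length or as DNA-binding domains, were expressed with a GST tag using PURExpress in vitro transcription/translation. At about 100-200 nM they were applied to universal all-10-mer Agilent arrays, double-stranded by primer extension on fresh or once-stripped slides. Fluorescent anti-GST detected bound protein, and masliner normalised the scans. E-scores for ungapped eight-base words, pooled with reverse complements, came from the Universal PBM Analysis Suite.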

Sequence	PBM E-score
AGTCTGGA	0.0514
AACAAACG	-0.0504
GCTTCCTA	-0.225
CGCAACGC	-0.0215
GCGCACAC	-0.0469
CAGATTTC	-0.0565
ACAGTTTA	-0.101
CAAGTCAC	0.284
GAGCACCC	-0.0139
GGGGATAC	-0.044
CCTGTAGC	-0.219
CTCTGGGC	-0.164
GCCTTAAC	-0.199
CTTGTGCA	0.00015
AGAGCGTA	-0.135
TACGATGA	0.11
ACCCTACC	0.00399
AATGACGC	0.00169
GACGCGCA	-0.022
ATCGAGAG	0.00887
AGTGAGCA	-0.0161
CGACGCGC	0.0597
CGAACCGC	0.21
TATCATAA	0.167
AGGGGTAA	-0.232

Sequence	PBM E-score
AACACCGG	0.108
CGAGGCGC	0.0696
AACCGGGG	-0.0802
CACTGTCG	-0.0238
GGCCAGCC	0.0442
ACAAGCTC	0.0656
CGAAGGAC	-0.232
ATTTATTA	0.111
TTTGAAAA	-0.184
AATCAGAA	0.223
ATCTCCAT	0.0116
AATTTGAG	-0.154
GGACTGAC	0.0874
ACTATTTC	-0.0701
ACCCCCCG	-0.0758
GACTAGTA	0.263
CCACTGAC	0.00788
CCGTTTCG	-0.151
ACAGTTCG	0.0767
AATTCGAC	-0.323
CGCACCGA	0.143
GATATCAC	0.0619
CGTTGCAC	-0.0642
TGGACAAA	-0.143
CCTAGTCC	-0.0886

Sequence	PBM E-score
TCTGTACA	0.0644
AGATCTGA	0.107
CGATTTTC	0.00282
ACGCGTCG	0.0343
CGCGTGTA	0.14
TCCTTCAA	-0.131
ACGATGTG	0.216
TCCATCCA	0.00064
AGCTACGA	-0.0745
CATTCTCC	-0.124
AAGGCGGG	0.0231
CTCAGCCC	-0.0469
GTCGCTCA	-0.0251
GATCAGGA	-0.00962
GATAGATA	0.0849
AAGATGGT	-0.049
ACAGGACT	0.046
CGAATTGA	-0.187
GATTGCAC	0.0661
CTCCACCC	0.163
TGTGAAAA	-0.194
ACATATAG	0.11
AAGGAACT	-0.158
AGTATTGA	0.171
CCTCTGCG	-0.126

Sequence	PBM E-score
AAACGACA	0.138
ACGTAAAG	-0.194
GAAGCAGC	-0.15
AGGTAGCC	-0.102
CATCGGCC	-0.126
CATATTGC	0.0133
ACAGCCTG	-0.149
CGGCACAC	0.2
CATGATGG	0.139
GGTAGCAA	-0.213
AGTTAGAC	-0.0147
ATAGATCA	0.101
CTGGCAAC	-0.142
AGTCAGAA	0.18
TATCTAGA	-0.0402
ATTGTTGA	0.0702
AAGTAGTG	0.00973
ATAACACA	0.237
ATGCAAGC	-0.0788
CCGGATGC	-0.134
AAGGAGAA	-0.0752
ATACTCTG	0.00605
ATAGTTGA	0.0409
ACCCAACA	0.0667
CTTGATTC	0.214

Sequence	PBM E-score
ACGAAGAG	-0.0471
AGAGCTAA	-0.17
ACGCTACT	0.0842
ATTTATAA	0.075
CAGGCAGC	-0.142
AGATCATC	-0.12
ATCTAATC	0.0096
CTTGAGTA	0.0408
ACAGAAGG	-0.108
CTAGTAAG	-0.199
AGTAACAC	0.0963
CTCGGGAA	0.116
CTAGCGCA	-0.0626
CCAGACTA	0.145
TACATGTA	0.0887
CCCCCCAC	-0.288
CCAATTAG	0.125
ATGGGACC	-0.0308
CAGGGAGC	-0.0332
CATAACTA	0.118
GAGGAGAA	-0.299
CGGGTACG	-0.0468
CTTAGCCA	0.164
CTCAGTGC	0.0631
CAGAGCTA	-0.21

Sequence	PBM E-score
AAAAGATT	-0.224
CGCACAAG	-0.0473
GGTGCCTA	-0.145
CAATACAA	0.187
CACATTTC	0.0771
CCTAGGAG	-0.0958
ATCGGAAG	-0.0183
TAATAGTA	0.105
GGGCGGAA	0.0255
AACGGACT	-0.348
ACGGCACA	0.0246
ACATCCAA	0.133
GTCCTCCA	0.0132
GTTTATTA	0.255
CCCTAAAA	-0.219
GTCGGCCA	-0.101
ACCAAGCG	0.032
CCGATCAA	-0.0603
GGATGAAC	-0.0744
AAGGCGAG	-0.0946
GTTGAAAA	-0.19
ATGGCCAC	-0.164
TAAGAGGA	-0.121
ATGAAAAT	-0.0304
CAGTTCAG	-0.0035

Sequence	PBM E-score
AAAATTAC	-0.0551
CTGTAAGA	-0.186
CCGTCTAA	-0.138
AGTGACTA	0.367
ACAGATGC	-0.229
CGACTGCA	0.144
AACCGACT	0.0478
AACAAACC	0.0727
CGCCGCGA	0.257
GTTAACTA	0.11
CGTCCCAA	-0.0198
CTCACCCC	0.318
CATCTCCC	-0.0736
AGGCCATG	0.0507
GCAAAAAC	-0.156
CTCAAGAC	-0.0966
ACCTATAG	-0.144
TCAGTAAA	0.152
CCTCATAC	-0.119
CGACGTAC	0.0727
CGTAGACG	-0.192
AACAACTC	-0.0423
